These are yes or no findings as the source states them, for the method shown. For part of these data: Binding seen in cells or lysates may run through a third protein. Some entries that bind do so weakly or less than the wild type. For part of these data: Sequences can lack the tags named with a protein.
Experiments:
[1] = target: T1, FLAG-CYLD wild type (human) (UniProt Q9NQC7); assay: co-IP; immunoprecipitation of transiently expressed FLAG-CYLD variants from WT, CYLD KO or SPATA2 KO U2OS/NOD2 cells, western blot
T1 sequence: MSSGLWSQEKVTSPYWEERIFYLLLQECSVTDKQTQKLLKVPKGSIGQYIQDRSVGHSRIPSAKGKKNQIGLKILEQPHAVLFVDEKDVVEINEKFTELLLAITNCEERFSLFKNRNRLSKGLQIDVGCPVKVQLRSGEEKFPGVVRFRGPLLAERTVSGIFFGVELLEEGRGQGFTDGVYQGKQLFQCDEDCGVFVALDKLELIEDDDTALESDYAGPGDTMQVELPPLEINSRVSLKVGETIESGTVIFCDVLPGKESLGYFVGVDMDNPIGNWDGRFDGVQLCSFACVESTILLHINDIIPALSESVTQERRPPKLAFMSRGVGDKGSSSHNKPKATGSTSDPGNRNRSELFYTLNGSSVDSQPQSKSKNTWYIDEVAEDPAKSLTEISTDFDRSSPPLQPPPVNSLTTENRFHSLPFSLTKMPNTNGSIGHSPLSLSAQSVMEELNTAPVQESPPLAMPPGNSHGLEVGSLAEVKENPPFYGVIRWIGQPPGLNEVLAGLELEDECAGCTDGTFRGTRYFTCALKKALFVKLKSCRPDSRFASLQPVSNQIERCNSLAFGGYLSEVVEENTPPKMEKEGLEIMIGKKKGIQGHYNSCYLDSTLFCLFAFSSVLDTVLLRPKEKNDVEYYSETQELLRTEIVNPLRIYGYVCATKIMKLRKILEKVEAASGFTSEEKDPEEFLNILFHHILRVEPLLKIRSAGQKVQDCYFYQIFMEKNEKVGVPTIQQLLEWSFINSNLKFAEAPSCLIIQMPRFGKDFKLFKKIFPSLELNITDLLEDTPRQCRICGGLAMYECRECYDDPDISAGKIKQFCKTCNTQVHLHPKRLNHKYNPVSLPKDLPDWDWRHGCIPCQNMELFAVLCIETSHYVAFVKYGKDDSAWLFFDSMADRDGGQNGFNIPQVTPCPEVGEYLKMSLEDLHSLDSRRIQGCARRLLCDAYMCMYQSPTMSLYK

[2] = target: T2, CYLD (endogenous) (human (endogenous in U2OS/NOD2 and HCT116)) (UniProt Q9NQC7); assay: co-IP; immunoprecipitation of endogenous CYLD from U2OS/NOD2 cells, western blot for SPATA2; control IgG as negative control
T2 sequence: T1 sequence

[3] = target: T3, SPATA2 PUB domain (aa 1–241) (UniProt Q9UM82); assay: NMR titration; 15N-labeled B-box domain (aa 778–855) titrated with unlabeled SPATA2 PUB domain; both purified
T3 sequence: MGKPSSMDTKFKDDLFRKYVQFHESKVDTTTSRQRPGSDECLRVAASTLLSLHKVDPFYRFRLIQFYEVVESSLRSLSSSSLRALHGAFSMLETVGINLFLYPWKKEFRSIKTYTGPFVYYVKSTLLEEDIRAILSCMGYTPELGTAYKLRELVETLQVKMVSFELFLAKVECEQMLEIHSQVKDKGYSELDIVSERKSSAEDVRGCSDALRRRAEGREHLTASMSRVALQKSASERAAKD

[4] = target: T3, SPATA2 PUB domain (aa 1–241); assay: SPR; fraction of CYLD variant bound to SPATA2 PUB against varying CYLD concentrations; kinetic and equilibrium fits; both purified
[5] = target: T3, SPATA2 PUB domain (aa 1–241); assay: SEC-MALS; Superdex 75 size-exclusion column; CYLD and SPATA2 PUB variants alone and mixed; both purified
[6] = target: CYLD USP domain I790D (human) (UniProt Q9NQC7); assay: as above

B1: SPATA2 (endogenous) (protein, UniProt Q9UM82 1-520)
chain: MGKPSSMDTKFKDDLFRKYVQFHESKVDTTTSRQRPGSDECLRVAASTLLSLHKVDPFYRFRLIQFYEVVESSLRSLSSSSLRALHGAFSMLETVGINLFLYPWKKEFRSIKTYTGPFVYYVKSTLLEEDIRAILSCMGYTPELGTAYKLRELVETLQVKMVSFELFLAKVECEQMLEIHSQVKDKGYSELDIVSERKSSAEDVRGCSDALRRRAEGREHLTASMSRVALQKSASERAAKDYYKPRVTKPSRSVDAYDSYWESRKPPLKASLSLRKEPVATDVGDDLKDEIIRPSPSLLTMASSPHGSPDVLPPASPSNGPALLRGTYFSTQDDVDLYTDSEPRATYRRQDALRPDVWLLRNDAHSLYHKRSPPAKESALSKCQSCGLSCSSSLCQRCDSLLTCPPASKPSAFPSKASTHDSLAHGASLREKYPGQTQGLDRLPHLHSKSKPSTTPTSRCGFCNRPGATNTCTQCSKVSCDACLSAYHYDPCYKKSELHKFMPNNQLNYKSTQLSHLVYR
For B1, the binding [1] was “binds” and the binding [2] was “binds”.

B2: CYLD B-box domain (aa 778–855) (domain or fragment, UniProt Q9NQC7 778-855)
chain: TDLLEDTPRQCRICGGLAMYECRECYDDPDISAGKIKQFCKTCNTQVHLHPKRLNHKYNPVSLPKDLPDWDWRHGCIP
modifications: 15N-labelled in the NMR titration
For B2, the binding [3] was “no binding” and the binding [4] was “no binding”.

B3: SPATA2 PUB domain (aa 1–241) (domain or fragment, UniProt Q9UM82 1-241)
chain: T3 sequence
For B3, the binding [5] was “no binding”.

B4: CYLD USP domain I790D (domain or fragment, UniProt Q9NQC7 583-956)
chain: GLEIMIGKKKGIQGHYNSCYLDSTLFCLFAFSSVLDTVLLRPKEKNDVEYYSETQELLRTEIVNPLRIYGYVCATKIMKLRKILEKVEAASGFTSEEKDPEEFLNILFHHILRVEPLLKIRSAGQKVQDCYFYQIFMEKNEKVGVPTIQQLLEWSFINSNLKFAEAPSCLIIQMPRFGKDFKLFKKIFPSLELNITDLLEDTPRQCRDCGGLAMYECRECYDDPDISAGKIKQFCKTCNTQVHLHPKRLNHKYNPVSLPKDLPDWDWRHGCIPCQNMELFAVLCIETSHYVAFVKYGKDDSAWLFFDSMADRDGGQNGFNIPQVTPCPEVGEYLKMSLEDLHSLDSRRIQGCARRLLCDAYMCMYQSPTMSLYK
In the case of B4, the binding [6] is reported as “no binding”.
